The source of these data is PMC12136788.

First the molecules themselves.
B1: chr5:175441761:175443099:-|CDS|ENSG00000184845|control|control|control (ssRNA)
RNA: GGGAGUUCUACAGUCCGACGAUCGAAGGCAUUUUCAACCCUCUUAGGAUGCUACAGACUUUGCCCUGCGACGAAUAAUGCCAUAGAGACGGUGAGUAUCAAUAACAAUGGGGCCGCGAUGUUUUCCAGCCAUCAUGAGCCACGCAACAGAGGAUUGAGCAUCA
B2: chr5:16781720:16781826:-|CDS|ENSG00000145555|unk|total|mutant (ssRNA)
RNA: GGGAGUUCUACAGUCCGACGAUCCUUCACAGCCCCAUCAUGGAAGCUUUCGGCAAUGCGAAGACCGUGUACAACAACAACUCCCGUCGCUUUGGGAAGUUUGUUCAGCUGAACAUCUGUCAGAAAGGAAAUAUUCAGGGCGGGCAACAGAGGAUUGAGCAUCA
B3: chr14:77132432:77132533:-|3pUTR|ENSG00000177108|unk|FALSE|unique (ssRNA)
RNA: GGGAGUUCUACAGUCCGACGAUCUGUGAUUGCUGGACCCAGAGGCAAGAUCUGCAGAGAUGCCUGUGAGAUAUUUGCUUUCCUAGAGGGGAGUGUGGGCAUGGGAGGGGUCUGAAAAUCAGGACCCAACCCAGCCACUGAAGACAACAGAGGAUUGAGCAUCA
B4: chr3:45835589:45835784:-|CDS|ENSG00000163818|control|control|control (ssRNA)
RNA: GGGAGUUCUACAGUCCGACGAUCGACACCUUCACCAUAGAUGAAGUCUCUGAAGUCCUCAAUGGAUUACAAGCUGUGGUUCAUAGUGAGGUGGAAUCUGAGCUCAUCAACACUGCCUAUACCAAUGUGUUACUUCUGCGACAGCAACAGAGGAUUGAGCAUCA
B5: chr4:168927217:168927233:+|3pUTR|ENSG00000129116|msi1_unk|total|mutant (ssRNA)
RNA: GGGAGUUCUACAGUCCGACGAUCAACCACCCAAAUGACCAAGGCAUAUACCGUAUUUGGAGGAAUCAGGGGUUUGGAAGGAGCCGGGAGGAGAAUGAAGGAAAAUGCAACCAGCAUGAUUACCGUGUGUUCAUUCCGAUAAAACAACAGAGGAUUGAGCAUCA
B6: chr18:47206168:47206892:-|three_prime_utr|ENSG00000215474|control|control|control (ssRNA)
RNA: GGGAGUUCUACAGUCCGACGAUCCAGGUUCAGGAGAACCUAAGGACAAGUGACCUCAAAACAGCAUGGACAACCAUGUAAAAUAGACUGUAGCAGCCAUUCAUUAGUGGGGGGAGGGGGGAGCCAACCAGAGCAGUCAAUGCUCAACAGAGGAUUGAGCAUCA
B7: chr6:125889563:125889680:+|CDS|ENSG00000111912|unk|total|mutant (ssRNA)
RNA: GGGAGUUCUACAGUCCGACGAUCCAAGCAGUCUGGUUCGCCAGAAAGCCGAGCCGAAAACACACUGAACAUACAUGAAGAUUCCGAUAAAGUUAAACUCAUUGAAUAUUACCUGACUAAGAACAAAGAAGGGCCACAGGUAUCCAACAGAGGAUUGAGCAUCA
B8: chr20:4700004:4700108:+|3pUTR|ENSG00000171867|msi1|total|mutant (ssRNA)
RNA: GGGAGUUCUACAGUCCGACGAUCUCACCAUCUUUCUAAUCUUUUUCCAGCUUGAGGGAGGCGGUAUCCACCUGCAGCCCUUUCCGUGGUGGUGUCUCACUCUUUCUUCUCUCUUUGUCCCGGACCGGCUAAUCAAUACCCUUGCAACAGAGGAUUGAGCAUCA
B9: chr17:39792672:39792933:-|CDS|ENSG00000161405|control|control|control (ssRNA)
RNA: GGGAGUUCUACAGUCCGACGAUCAGAGAAUAUAAUGAAUAUGAAAACAUUAAGUUGGAGAGACAUGUUGUCUCAUUCGAUAGUAGCAGGCCAACCAGUGGAAAGAUGAACUGCGAUGUGUGUGGAUUAUCCUGCAUCAGCUUCCAACAGAGGAUUGAGCAUCA
B10: chrX:13708825:13708941:+|CDS|ENSG00000123595|unk|FALSE|unique (ssRNA)
RNA: GGGAGUUCUACAGUCCGACGAUCGAGUUCACUUAUGAACAGAUAUGUAACUAAUAAGUUUGAUACCCAGCUCUUCCAUACAAUAGGUGUGGAAUUUUUAAAUAAAGAUUUGGAAGUGGAUGGACAUUUUGUUACCAUGCAGAUCAACAGAGGAUUGAGCAUCA
B11: chr4:108667705:108667793:+|3pUTR|ENSG00000198856|msi1_unk|FALSE|overlapping (ssRNA)
RNA: GGGAGUUCUACAGUCCGACGAUCUCUGGACAGUUGAUCAGCUUUACCUAUGGUGCUUUGCCUUUAACUAGAGUGUGUGAUGGUAGAUUAUUUCAGAUAUGUAUGUAAAACUGUUUCCUGAACAAUAAGAUGUAUGAACGGAGCCAACAGAGGAUUGAGCAUCA
B12: chr5:113014749:113014850:+|3pUTR|ENSG00000172795|msi1|FALSE|unique (ssRNA)
RNA: GGGAGUUCUACAGUCCGACGAUCUAAAAAUCCUUUUUUACAGUGGUAUCCACAAAAUACUUCUCUGCUUAUAAAUGUUAUUGUAGAAAUCUUUAUUCUGUGUAGGUAGCCUAUUUAAUUGGGUUCCACUGAACCUCAUGGGACCAACAGAGGAUUGAGCAUCA
B13: chr1:66374421:66374522:+|3pUTR|ENSG00000184588|msi1|FALSE|bound_elsewhere (ssRNA)
RNA: GGGAGUUCUACAGUCCGACGAUCACUGCAUUGUUUCAGGUGGACAUUUUAUCAUUUUCAAAUGUUUCUCACAAUGUAUGUUAUAGUAUUAUUAUUAUAUAUUGUGUUCAAAUGCAUUCUAAAGAGACUUUUAUAUGAGGUGAACAACAGAGGAUUGAGCAUCA
B14: chr7:135927258:135927359:-|3pUTR|ENSG00000105887|msi1_unk|FALSE|overlapping (ssRNA)
RNA: GGGAGUUCUACAGUCCGACGAUCCAGCUUCAGACUGUUAUCUAUAGGCUUAUCGUUCAAAUACAGCACUUGAAUAUCCCAAGUAGUUCUUCUACGCAUAGCUCACCUUUCUAAACCCAGUUAAGCAUGGAAGAGAGGUAGUAGCAACAGAGGAUUGAGCAUCA
B15: chr18:35263486:35263657:-|CDS|ENSG00000186814|control|control|control (ssRNA)
RNA: GGGAGUUCUACAGUCCGACGAUCGGAAAUGACAUCCACAGGAGCACUGAAGUCUCUGUCUCUGAAUAGCCCGGUGCAGCCCUUAGAGAACCAGUGCAAGACUGAGACUCAGGAGUCCCAGGCUUUCCAGGAGAGAGGUGAGAACAACAGAGGAUUGAGCAUCA
B16: chr3:100713726:100713879:+|CDS|ENSG00000114354|unk|total|mutant (ssRNA)
RNA: GGGAGUUCUACAGUCCGACGAUCACUUGGGGAGGAUAUUCGGCGAAUUCCUAUUCAUAAUGAAGAUAUUACUUAUGAUGAAUCCGUGCUAAUGAUGCAACGAGUUUUCAGAGGAAAACUUCUGAGUAAUGAUGAAGUAACAAUCAACAGAGGAUUGAGCAUCA
B17: chr1:32195301:32195402:+|3pUTR|ENSG00000084652|msi1|FALSE|unique (ssRNA)
RNA: GGGAGUUCUACAGUCCGACGAUCUGACCUGGCUGGCAUCUGGCACUUGCAAUUUUGGAUUUUGUGGGUCAGUUUUACGUACAUAGGGCAUUUUGCAAGGCCUUGCAAAUGCAUUUAUACCUGUAAGUGUACAGUGGGCUUGCACAACAGAGGAUUGAGCAUCA
B18: ENSG00000107863:be:win_4851|CDS|ENSG00000107863|bound_else_gene|NA|bound_elsewhere_windowed (ssRNA)
RNA: GGGAGUUCUACAGUCCGACGAUCCGAGGCAGAUGACGAGAGAAGCGAACUCAUCAGUGAAGGGCGGCCUGUGGAAACCGACAGCGAGAGCGAGUUUCCCGUGUUCCCCACAGCCUUGACUUCAGAGAGGCUUUUCCGAGGAAACAACAGAGGAUUGAGCAUCA
B19: chr10:32033860:32033975:-|CDS|ENSG00000170759|unk|FALSE|unique (ssRNA)
RNA: GGGAGUUCUACAGUCCGACGAUCCACAGUGGAUAAAGAUAUUACUCUUACCAAUGAUAAACCAGCAACCGCAAUUGGAGUUAUAGGAAAUUUUACUGAUGCUGAAAGAAGAAAGUGUGAAGAAGAAAUUGCUAAAUUAUACAACAACAGAGGAUUGAGCAUCA
B20: chr19:13095865:13096029:+|3pUTR|ENSG00000008441|msi1|FALSE|unique (ssRNA)
RNA: GGGAGUUCUACAGUCCGACGAUCCCGCCCCCCACGUGGCCACUUUUCUCUGGAUUUUAGCUGUAAUGUCUUUACUCUUUAUUUAGGGGUGGGGCAUUCAUUGUUUGGGUCUUUUGCUGUUGGAAUGGGAACUCCUCCUCCAUUCAACAGAGGAUUGAGCAUCA
B21: chr1:6592219:6592320:-|3pUTR|ENSG00000162413|unk|FALSE|unique (ssRNA)
RNA: GGGAGUUCUACAGUCCGACGAUCCCCAAAGUAGCCUUGGCUUGAGUUUUUGUCCUUGCCUCCUUUUUAGAGAAGAGGGCAUUUAGACUGCAUUUUCCUGGUUAAAGAAGGUUAAAGCAAAUGUUUAUUGCCUUUUCUAGUGAACAACAGAGGAUUGAGCAUCA
B22: chr3:69085097:69085224:+|CDS|ENSG00000144746|unk|FALSE|bound_elsewhere (ssRNA)
RNA: GGGAGUUCUACAGUCCGACGAUCGGGUUCCGAUCGCUUUGCCCGGCCGGACUUCAGGGACAUUUCCAAAUGGAACAACCGCGUAGUGAGCAACCUGCUCUAUUACCAGACCAACUACCUGGUGGUGGCUGCCAUGAUGAUUUCCAACAGAGGAUUGAGCAUCA

This is one part of the list.

This assay addresses MSI1 full-length (mouse, UniProt Q61474 1-362). Nature of the assay: nsRBNS (natural sequence RNA bind-n-seq); RBNS binding buffer (assumed for nsRBNS): 25 mM Tris pH 7.5, 150 mM KCl, 3 mM MgCl2, 0.01% Triton X-100, 500 ug/ml BSA, 20 U/ml SUPERase-In, 4 C; UNK is unkempt and MSI1 is Musashi-1; names of the RNAs are library labels; protein concentration not given here; high values mean tight binding.
Chain of UniProt Q61474 (Q61474 whole entry): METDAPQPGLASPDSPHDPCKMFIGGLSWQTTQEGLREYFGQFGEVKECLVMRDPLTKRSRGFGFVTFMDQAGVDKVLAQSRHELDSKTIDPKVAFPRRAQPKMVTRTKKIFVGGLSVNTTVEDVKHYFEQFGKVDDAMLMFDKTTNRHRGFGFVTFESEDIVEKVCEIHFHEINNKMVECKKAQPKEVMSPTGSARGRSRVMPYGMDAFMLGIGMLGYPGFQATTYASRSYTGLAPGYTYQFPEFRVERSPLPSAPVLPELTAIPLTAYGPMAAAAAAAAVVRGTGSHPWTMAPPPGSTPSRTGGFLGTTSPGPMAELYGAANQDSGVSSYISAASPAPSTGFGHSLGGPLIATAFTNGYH
For B1, the binding signal was 0.562 enrichment R.

B2 gave a binding signal of 0.441 enrichment R.

As to B3, the binding signal was 0.392 enrichment R.

For the molecule B4, the binding signal came out at 0.332 enrichment R.

As for B5, the binding signal turned out to be 0.421 enrichment R.

Molecule B6 returned a binding signal of 0.913 enrichment R.

On to B7, for which the binding signal came to 0.504 enrichment R.

In the case of B8, the binding signal amounted to 0.763 enrichment R.

The molecule B9 gave a binding signal of 1.51 enrichment R.

Molecule B10 had a binding signal of 12.3 enrichment R.

Turning to B11, the binding signal was found to be 1.65 enrichment R.

B12 registered a binding signal of 1.47 enrichment R.

B13 came in with a binding signal of 1.05 enrichment R.

The molecule B14 yielded a binding signal of 2.79 enrichment R.

Regarding B15, the binding signal worked out at 0.496 enrichment R.

Take B16: the binding signal was 0.283 enrichment R.

Molecule B17 returned a binding signal of 0.371 enrichment R.

For B18, the binding signal came to 0.409 enrichment R.

For B19, the binding signal amounted to 1.59 enrichment R.

In turn, B20 returned a binding signal of 0.732 enrichment R.

B21: the binding signal is 0.308 enrichment R.

Regarding B22, the binding signal worked out at 0.369 enrichment R.
